PubChem BioAssay AID686971 (National Center for Advancing Translational Sciences (NCATS), 2013)
Out of some 360,000 compounds screened, about 7,500 (2.1%) were called active. Inconclusive means that the source gave no clear call. Such entries were picked first, then a sample of the others. The call rests on the fitted dose curve; in most records, active means well fitted cell-killing curve with a large enough effect; inconclusive means small, poorly fitted or top-dose-only effect, or effect the other way, or another doubt; inactive means no such curve, though single readings can be large or run the other way. Potencies of inconclusive entries are left out as doubtful fits.

experiment: qHTS for induction of synthetic lethality in tumor cells producing 2HG: qHTS for the HT-1080-IDH1KD cell line; conditions: HT-1080 IDH1 knockdown viability, ATP luminescence, 48 h; activity, negative = toxicity: at 46.1 µM (top of the series) unless noted;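 on activity, negative = toxicity: 0% = DMSO wells and -100% = cell-free medium wells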
Summary of the method: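 Luminescent ATP read-out (CellTiter-Glo, 10 min at room temperature) after 48 h compound exposure at 37 °C gave viability of IDH1-knockdown HT-1080 cells. Activity was normalised to DMSO and cell-free wells, then fitted as concentration-response curves.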
Potency means the concentration at half of the fitted maximal effect; tags describe the fitted curve by direction and shape.

**Q.** For `CCCCCCC(=O)N(O)C1CC(=O)N(Cc2ccccc2)C1=O` (stereo unspecified), which Potency is on record?
**A.** The Potency was inconclusive [cytotoxic, single point].

**Q.** Which “activity, negative = toxicity” value does the source give for `C=CCn1c(=O)c2c3c(sc2n2c(Nc4ccc(C(=O)OCC)cc4)nnc12)CCCC3` here?
**A.** The value was inactive: -4.72%.

**Q.** For `COc1ccc(Cc2c(-c3ccccc3)nc3c(C)cc(Br)cn23)c(C)c1`, which Potency is on record?
**A.** Its Potency is inconclusive [cytotoxic, single point].

**Q.** With `Cc1cccc(N(C)C(=O)c2cc3c(=O)[nH]c4ccc(C)cc4c3s2)c1` as the compound, how does the Potency read?
**A.** The Potency was inconclusive [cytotoxic, full curve].

**Q.** With `COc1cc(CNC(=O)Nc2nc(C(N)Cc3ccc(C(F)(F)F)cc3)cs2)cc(OC)c1OC` (stereo unspecified) as the compound, how does the Potency read?
**A.** Its Potency is inconclusive [cytotoxic, single point].

**Q.** For `O=C(NC(c1ccc(Cl)cc1)c1ccsc1)C1CCN(Cc2ccc(Oc3ccccc3)cc2)CC1` (stereo unspecified), which Potency is on record?
**A.** Its Potency is active: 11.6 µM.

**Q.** With `O=C(Nc1nc(-c2ccc3c(c2)OCCO3)cs1)C1CCCC1` as the compound, how does the “activity, negative = toxicity” value read?
**A.** The value was inactive: -14.2%.

**Q.** Which “activity, negative = toxicity” value does the source give for `CSc1ncnc2c1ncn2CCCNCC1CCCO1` (stereo unspecified) here?
**A.** The value was inactive: 0.566%.

**Q.** With `COc1cc(-c2nnc3n2N=C(c2ccccc2)CS3)cc(OC)c1OC` as the compound, how does the Potency read?
**A.** The Potency was active: 1.16 µM.

**Q.** For `Cc1ccc(C(=O)N/N=C\c2cccs2)cn1`, which “activity, negative = toxicity” value is on record?
**A.** The value was inactive: 0.147%.

**Q.** With `CN1C2=CC=CC=CC2=[N+](C)C12C([N+](=O)[O-])=CC(=[N+]([O-])[O-])C=C2[N+](=O)[O-]` (stereo unspecified) as the compound, how does the Potency read?
**A.** Its Potency is active: 2.06 µM.

**Q.** For `COc1ccc(C=O)cc1COc1ccc(F)cc1F`, which “activity, negative = toxicity” value is on record?
**A.** Its value is inactive: 5.85%.

**Q.** Which Potency does the source give for `O=C(/C=C/c1ccco1)Nc1ccccc1C(=O)O` here?
**A.** The Potency was inconclusive [cytotoxic, single point].

**Q.** For `CCCCCCCCN1C(=O)[C@H](CC(=O)NCCC(C)C)C[C@@]2(C(=O)OCC)CCCC=C12`, which Potency is on record?
**A.** The Potency was inconclusive [cytotoxic, single point].

**Q.** With `Cc1cc(C)cc(CN2CCC(Oc3ccc(C(=O)N4CCCC4)cc3)CC2)c1` as the compound, how does the Potency read?
**A.** Its Potency is inconclusive [cytotoxic, single point].

**Q.** Which “activity, negative = toxicity” value does the source give for `Cc1cc(C)cc(NC(=O)CSc2nnc(Cc3cccn3C)n2-c2ccc(F)cc2)c1` here?
**A.** Its value is inactive: -7.56%.

**Q.** Which Potency does the source give for `O=C(Nc1ccc(/C=C/c2nc3ccccc3o2)cc1)c1c(F)cccc1F` here?
**A.** The Potency was inconclusive [cytotoxic, single point].

**Q.** With `COc1ccc(C2c3ccc(O)cc3Oc3ncn4nc(-c5cccnc5)nc4c32)cc1OC` (stereo unspecified) as the compound, how does the Potency read?
**A.** The Potency was active: 14.6 µM.

**Q.** Which Potency does the source give for `CCC(C)N(C(=O)Cn1nnc2ccccc21)C(C(=O)Nc1ccc(F)cc1)c1cccc(OC)c1` (stereo unspecified) here?
**A.** The Potency was inconclusive [cytotoxic, single point].

**Q.** With `COc1ccc(NC(=S)NC(NC(=O)c2cccc(Cl)c2)C(Cl)(Cl)Cl)c([N+](=O)[O-])c1` (stereo unspecified) as the compound, how does the Potency read?
**A.** Its Potency is inconclusive [cytotoxic, single point].

**Q.** Which Potency does the source give for `O=C(C1CCCCC1)N1C[C@@H](O)[C@H](n2cc(-c3ccc(F)cc3)nn2)C[C@@H]1c1ccc(Cl)cc1` here?
**A.** Its Potency is inconclusive [cytotoxic, single point].

**Q.** Which Potency does the source give for `CCOC(=O)N1CCN(S(=O)(=O)c2ccc(C(=O)N(CCCN(C)C)c3nc4ccc(CC)cc4s3)cc2)CC1` here?
**A.** The Potency was active: 16.4 µM.

**Q.** For `CC(=O)c1cc(-c2ccc(F)cc2)n(CC(=O)NCc2cccs2)c1C`, which Potency is on record?
**A.** Its Potency is inconclusive [cytotoxic, single point].

**Q.** Which “activity, negative = toxicity” value does the source give for `C=C(C)COc1ccc2c(C)c(CCC(=O)NC3CC3)c(=O)oc2c1` here?
**A.** Its value is inactive: -4.52%.

**Q.** Which Potency does the source give for `Oc1cc(-c2ccccc2)c2ccccc2c1` here?
**A.** Its Potency is inconclusive [cytotoxic, single point].

**Q.** Which Potency does the source give for `NC(=NCc1ccccc1)NN=Cc1ccnc2ccccc12` here?
**A.** Its Potency is inconclusive [cytotoxic, single point].

**Q.** With `Cc1cccc(NS(=O)(=O)c2cccc(C(=O)N3CCCC3)c2)c1` as the compound, how does the “activity, negative = toxicity” value read?
**A.** Its value is inactive: 0.349%.

**Q.** Which Potency does the source give for `CN(C)c1ccc(-c2nc3ccccc3n2C)cc1` here?
**A.** Its Potency is active: 11.2 µM.

**Q.** For `O=C(c1ccccc1Oc1ccccc1)N1CCN(c2ccc(F)cc2)CC1`, which Potency is on record?
**A.** Its Potency is inconclusive [cytotoxic, single point].

**Q.** With `COc1ccc(S(=O)(=O)N2CCN(C(=O)c3ccco3)CC2)c(C)c1C` as the compound, how does the Potency read?
**A.** The Potency was inconclusive [cytotoxic, partial curve].

**Q.** Which “activity, negative = toxicity” value does the source give for `CCc1noc(C)c1C(=O)Nc1nc(-c2ccc(NC(C)=O)cc2)cs1` here?
**A.** The value was inactive: 8.31%.

**Q.** For `CC1N(C)c2cc(NC(=O)c3cccs3)c(P(=O)(Nc3ccc([N+](=O)[O-])cc3)N3CCOCC3)cc2C1(C)C` (stereo unspecified), which “activity, negative = toxicity” value is on record?
**A.** The value was inactive: -27.3%.

**Q.** For `CC(C)N1CCc2c(sc(NC(=O)c3ccc(S(=O)(=O)N4CCCCC4C)cc3)c2C(N)=O)C1` (stereo unspecified), which Potency is on record?
**A.** The Potency was inconclusive [cytotoxic, single point].

**Q.** With `COc1ccccc1-c1nnc(SCC(=O)Nc2cccnc2Cl)n1C` as the compound, how does the “activity, negative = toxicity” value read?
**A.** The value was inactive: -0.184%.

**Q.** For `COc1ccc(C2C(C#N)=C(N)Oc3cccc(O)c32)cc1` (stereo unspecified), which “activity, negative = toxicity” value is on record?
**A.** The value was inactive: -6.29%.

**Q.** For `CCOC(=O)c1cc2sccc2n1CC(=O)N1CCCC1`, which “activity, negative = toxicity” value is on record?
**A.** The value was inactive: 6.33%.

**Q.** With `Cc1ccc(C)c(OCCC(=O)N2CCN(S(=O)(=O)c3cc(F)ccc3F)CC2)c1` as the compound, how does the Potency read?
**A.** Its Potency is inconclusive [cytotoxic, single point].

**Q.** For `CCCn1c(/C=C/c2ccccc2)nc2ccccc21`, which Potency is on record?
**A.** Its Potency is active: 10 µM.

**Q.** Which Potency does the source give for `COc1ccc(NS(=O)(=O)c2ccc3oc(SCc4ccc(F)cc4)nc3c2)cc1` here?
**A.** The Potency was inconclusive [cytotoxic, partial curve].

**Q.** With `CCOc1ccc(N(C)S(=O)(=O)c2ccc(-c3cc(C)no3)s2)cc1` as the compound, how does the Potency read?
**A.** The Potency was active: 7.31 µM.

**Q.** For `COc1ccc(Cn2c(=O)[nH]c3cc(C(=O)N4CCN(Cc5ccccc5)CC4)ccc3c2=O)cc1`, which Potency is on record?
**A.** The Potency was inconclusive [cytotoxic, partial curve].

**Q.** Which Potency does the source give for `CCCCn1c(N)c(C(=S)NC(=O)CC(C)C)c(=O)n(C)c1=O` here?
**A.** Its Potency is inconclusive [cytotoxic, single point].

**Q.** With `CCCOc1ccc(C(=O)NNC(=S)NC(C)=O)cc1` as the compound, how does the Potency read?
**A.** Its Potency is active: 7.08 µM.

**Q.** Which Potency does the source give for `OC(c1ccccc1)(c1nc(-c2ccccc2)cs1)C(F)(F)F` (stereo unspecified) here?
**A.** Its Potency is inconclusive [cytotoxic, single point].

**Q.** For `CCCCn1c(NCc2ccccn2)nc2ccccc21`, which Potency is on record?
**A.** Its Potency is inconclusive [cytotoxic, single point].

**Q.** For `CC(=O)/C(=N\Nc1ccc(C)cc1)Sc1nncn1C`, which Potency is on record?
**A.** The Potency was inconclusive [cytotoxic, partial curve].
